# Inconclusive results and toxic doses are left out. A number of entries come with more than one value. Only these are listed. The source may hold further records. Results that share an entry differ for a reason that is not stated; some may be repeats, others may stem from another dose, organism or construct than stated.
# Test system: L1210 leukemia ip in BDF1 mice, survival T/C
# Experiment: NCI In Vivo Anticancer Drug Screen. Data for tumor model L1210 Leukemia (intraperitoneal) in B6D2F1 (BDF1) mice
# Details: endpoint: mean survival time, higher = longer survival
SMILES,"T/C (dose: 35.0 mg/kg/injection, schedule: Q01DX001 (ip), vehicle: saline)","T/C (dose: 96.0 mg/kg/injection, schedule: Q01DX009 (ip), vehicle: Klucel (hydroxypropylcellulose) (HPC))"
O=P(N1CCOCC1)(N1CC1)N1CC1,119 % of control and 162 % of control,–
Cc1c(O)ccc(=O)n1O,–,117 % of control and 156 % of control

# Reference: PubChem BioAssay AID248 (DTP/NCI, 2004)
